44 molecules from ChEMBL document CHEMBL4888484, “Replenishing the malaria drug discovery pipeline: Screening and hit evaluation of the MMV Hit Generation Library 1 (HGL1) against asexual blood stage Plasmodium falciparum ,using a nano luciferase reporter read-out” (2022) can be followed below.

A word on the % Inhibition: it is the drop in the measured response relative to a control, in per cent.

The campaign covered roughly 150,000 compounds. About 540 (0.36%) showed an effect of 50% or more. The list shows a part of the results.

The test system of this assay is Plasmodium falciparum. In words: Primary screen in NF54 nanoGlo assay, in single point, at 2uM, 72h; a lower Z score goes with more inhibition. The format is functional, Erythrocyte. To be noted: timepoint 72 hour.
Regarding `Cc1cc(CO)cc(C)c1CNc1ncnc2c1CCC2`, the “% Inhibition” value was -5% and the Z score amounted to 0.85.

For `O=C(Cn1c(=O)ccc2cc(S(=O)(=O)N3CCCC3)ccc21)N1CCN(c2ccc(F)cc2)CC1`, the “% Inhibition” value is listed as -5% and the Z score came out at 0.69.

On to `O=C(CCc1cccnc1)NC(c1cccs1)[C@H]1C[C@@H](O)C1` (stereo partly drawn), for which the “% Inhibition” value is listed as -16% and the Z score turned out to be 2.29.

For `CCCCn1cc(-c2ccc3ccccc3n2)c(=S)c2ccccc21`, the “% Inhibition” value is given as 1% and the Z score is -0.11.

For the molecule `COCCOCc1nc(C2CC2)nn1-c1cc(C)ccc1C`, the “% Inhibition” value is listed as -3% and the Z score is given as 0.42.

As for `CC(C)CNC(=O)c1[nH]cnc1C(=O)N[C@H]1CCCCNC1=O`, the “% Inhibition” value came to 14% and the Z score was -1.63.

For `CCOc1cc(Cl)c(CN2C[C@@H]3CN(C)C[C@]3(C(=O)O)C2)cc1OCC`, the “% Inhibition” value is reported as -9% and the Z score was 1.24.

`CCN(C(=O)[C@@H]1CCCO1)c1ccccc1C`: the “% Inhibition” value is -15% and the Z score was found to be 2.88.

For `CCOc1ccc(S(=O)(=O)N2CC(F)(F)C[C@H]2CN2CCc3ccccc3C2)cc1`, the “% Inhibition” value came to 0% and the Z score was 0.02.

As for `CN(CC1CCCCC1O)C(=O)NCCc1ccsc1` (stereo not drawn), the “% Inhibition” value is given as -17% and the Z score turned out to be 2.56.

Regarding `CC(C)Oc1ncccc1C(=O)N1CC(=O)N(CC2CC2)C1`, the “% Inhibition” value is listed as -17% and the Z score stood at 1.55.

On to `C[C@H](Oc1ccccc1Br)C(=O)N(CCC#N)C1CC1`, for which the “% Inhibition” value is listed as -1% and the Z score is recorded as 0.15.

Turning to `Cc1c(CN2CC[C@H](CO)[C@H](NC(=O)c3ccccc3)C2)cnn1C`, the “% Inhibition” value was -6% and the Z score turned out to be 0.78.

`CCS(=O)(=O)Nc1cc(-c2nnc(C(C)C)o2)sc1C`: the “% Inhibition” value was -10% and the Z score is reported as 1.58.

Turning to `Cc1nn(C)c(C)c1CC(=O)N(Cc1ccccn1)c1ccncc1`, the “% Inhibition” value was -8% and the Z score turned out to be 1.19.

In the case of `N#Cc1cnc(N2CCNC(=O)C2)c(Cl)c1`, the “% Inhibition” value was -13% and the Z score came out at 1.62.

For the molecule `C[C@@H](CC1CC1)Nc1ccc2oc(CO)cc2c1`, the “% Inhibition” value came to 3% and the Z score was -0.36.

As to `C[C@H]1Cc2cc(S(=O)(=O)N(C)CC#N)cc(Cl)c2O1`, the “% Inhibition” value is on record as -7% and the Z score stood at 1.19.

For `Fc1cccc(Cl)c1CN1CC(c2nc(C3CC3)no2)C1`, the “% Inhibition” value is on record as 4% and the Z score was -0.75.

For the molecule `CN(C)c1cc(CNCc2ccc3c(c2)CCO3)ccn1`, the “% Inhibition” value is reported as -12% and the Z score was 1.62.

As to `Cc1[nH]c2ncnc(N[C@@H](C)c3cccnc3)c2c1C`, the “% Inhibition” value came to 0% and the Z score is reported as -0.04.

For `Cc1cc2c(N3CCN(c4ccc(C5CC5)nn4)CC3)nccn2n1`, the “% Inhibition” value came out at 10% and the Z score is listed as -1.27.

For `O=C(NCCC1=CCCCC1)c1nnc(-c2ccc3c(c2)OCO3)o1`, the “% Inhibition” value was -9% and the Z score turned out to be 1.65.

As to `COc1ccc([C@@H]2CCC(=O)N2CCN2CCOCC2)cc1`, the “% Inhibition” value is recorded as -3% and the Z score was 0.42.

In the case of `Cc1nccn1CCN(C)CCc1ccccn1`, the “% Inhibition” value is reported as -5% and the Z score worked out at 0.84.

Turning to `Cc1ncn(CC2CCN(c3nc4ccc(F)cc4o3)CC2)c(=O)c1C`, the “% Inhibition” value is on record as -12% and the Z score turned out to be 1.69.

With `COc1ccc(-c2n[nH]cc2CN(C)[C@H]2CCc3nn(C)c(=O)n3CC2)cc1OC`, the “% Inhibition” value was 10% and the Z score is -1.8.

For the molecule `CCCCCNC(=O)N1CCN(C(C)(C)C(N)=O)CC1`, the “% Inhibition” value is reported as -6% and the Z score came out at 1.06.

Turning to `C[C@@H](C#N)N1CCN(CCN(C)Cc2ccccc2)CC1`, the “% Inhibition” value is reported as -12% and the Z score was determined as 1.48.

For the molecule `O=C(Nc1ccccc1)Nc1nnc[nH]1`, the “% Inhibition” value was 39% and the Z score is listed as -5.57.

In the case of `CCOc1ccccc1[C@H]1N(c2ccc(OC)cc2)C(=O)[C@@H]2CCCN21`, the “% Inhibition” value was -12% and the Z score came to 1.54.

Regarding `O=S(=O)(Nc1cccc(C(F)(F)F)n1)c1cccnc1`, the “% Inhibition” value is on record as -2% and the Z score was 0.22.

As to `CCN(CC(=O)c1ccco1)C1CCCCC1`, the “% Inhibition” value was determined as 16% and the Z score is reported as -2.17.

On to `O=C(NCCCC(=O)N1Cc2ccccc2C1)Nc1nncs1`, for which the “% Inhibition” value was -19% and the Z score amounted to 1.75.

For `Cc1cc(C(=O)NCc2ccnc(-c3ccsc3)c2)n(C)n1`, the “% Inhibition” value is on record as -3% and the Z score is 0.43.

For `CC(=O)N1CCC[C@H](C(=O)N2CCN(c3cnccn3)CC2)C1`, the “% Inhibition” value is recorded as -5% and the Z score was 0.86.

As for `FC(F)n1ccnc1CNC1(c2cccc(C(F)(F)F)c2)CCC1`, the “% Inhibition” value is listed as 4% and the Z score is given as -0.67.

Consider `O=C(O)c1ccc(CNCc2csc(COc3ccc(Cl)cc3)n2)cc1`, for which the “% Inhibition” value was found to be 4% and the Z score is given as -0.54.

With `CNc1nc2c(c(C(=O)N3CCCC3)n1)CN(c1ncccc1Cl)CC2`, the “% Inhibition” value was -21% and the Z score was found to be 2.06.

Consider `CCc1cnc(C)nc1N[C@H]1COC[C@@H]1N1CCOCC1`, for which the “% Inhibition” value was found to be 9% and the Z score is -1.76.

Take `COC1CC(NC(=O)N2CCC3(c4ccccc4)C(C2)C3(F)F)C12CCC2` (stereo not drawn): the “% Inhibition” value is -2% and the Z score is given as 0.32.

As for `C[C@H]1C(=O)N2C[C@@H](N(C)C)C[C@H]2CN1Cc1ccc(Br)o1`, the “% Inhibition” value is -3% and the Z score is listed as 0.49.

In the case of `CC(C)(C)C(=O)Nc1sc2c(c1C(=O)Nc1cccc3ccccc13)CCCC2`, the “% Inhibition” value is given as 12% and the Z score is reported as -1.93.

With `O=C(NC[C@@H](c1ccc(C(F)(F)F)cc1)N1CCOCC1)C1CCC1`, the “% Inhibition” value was -6% and the Z score came to 0.64.
